Screen size: about 52,000 compounds; about 4,300 (8.3%) were called active. Cut-off read from the data, not from the text of the source: active = survival mostly below about 52% (no sharp cut-off); inactive = mostly above about 56%. Some of the results follow.

This experiment has as its system DeltatarO mutant. As to the kind of experiment: S. aureus survival, RN4220 and DeltatarO strains – OD600, teichoic acid synthesis inhibitors, primary screen (AID 463173). To be noted: S. aureus RN4220 wild type/DeltatarO growth, OD600, 18 h, hits give low values, screened at 18.75 µg/mL (by protocol).
As for `COc1cccc2cc(-c3nc4sc5c(c4c(=O)[nH]3)CCC(C(C)(C)C)C5)c(=O)oc12` (centres undefined), the survival was inactive: 87%.

Take `COc1ccc(/C=C/c2nc(C#N)c(N3CCCCC3)o2)cc1OC`: the survival was inactive: 76%.

Turning to `Cc1ccc2c(=O)cc(C(=O)Nc3c(C)cccc3C)oc2c1`, the survival was active: 44%.

As to `CCc1ccc(NC(=O)Cn2ncn3c(cc4ccccc43)c2=O)cc1`, the survival is inactive: 118%.

As for `CCCCN(Cc1cc2cc(C)ccc2[nH]c1=O)C(=O)c1cccc(Cl)c1`, the survival was inactive: 72%.

Consider `Cc1cc2c(cc1S(=O)(=O)NCc1ccc(F)cc1)OCCN2C`, for which the survival was inactive: 85%.

As for `O=C(Nc1ccc(OC(F)(F)F)cc1)c1cc(-c2ccc(Cl)cc2)on1`, the survival is inactive: 82%.

On to `Cc1nc2c3ccccc3nc(NNC(=O)CCC(=O)N3CCN(c4ccc(F)cc4)CC3)n2n1`, for which the survival was inactive: 91%.

As for `Nc1ccc2nc(CO)[nH]c2c1`, the survival was inactive: 98%.

Take `CC(=O)N1CCCc2ccc(NC(=O)c3ccc(OC(C)C)cc3)cc21`: the survival was inactive: 68%.

Consider `Cc1ccc2nc(COc3ccccc3NC(=O)Nc3ccc(F)c(Cl)c3)cc(=O)n2c1`, for which the survival was inactive: 94%.

For `CCSc1nc(-c2ccc(OC)cc2)nc2c1Cc1c(CO)cnc(C)c1O2`, the survival was inactive: 83%.

As to `CCC(=O)N1CCc2cc(Br)cc(S(=O)(=O)N3CCCC(C(=O)NCc4ccc(C)cc4)C3)c21` (centres undefined), the survival was inactive: 94%.

For `Cc1occc1C(=O)NC(C)C12CC3CC(CC(C3)C1)C2` (centres undefined), the survival is inactive: 96%.

For the compound `O=C(Cn1ncc2c3ccccc3n(Cc3ccccc3)c2c1=O)NCCc1ccc(Cl)cc1`, the survival is inactive: 84%.

Consider `COc1ccc(S(=O)(=O)N2CCC(c3nc4ccccc4s3)CC2)cc1OC`, for which the survival was inactive: 86%.

With `COc1cccc(NC(=O)Cn2nc(N3CCN(c4ccccc4)CC3)ccc2=O)c1`, the survival was inactive: 77%.

On to `Cc1ccc(Cl)cc1-n1ncc2c(NCCc3ccccc3)ncnc21`, for which the survival was inactive: 60%.

`CCCNC(=O)c1ccc2c(c1)N=C(CCC)c1ccccc1S2`: the survival is inactive: 50%.

On to `Cc1cccc(CSc2cn(CC(=O)N3CCOCC3)c3ccccc23)c1`, for which the survival was inactive: 81%.

As for `O=C(Cn1nc2c(cc1=O)CCCC2)NCc1ccc(Cl)cc1`, the survival is inactive: 115%.

As to `CCCn1c(=N)c(C(=O)NCC2CCCO2)cc2c(=O)n3cc(C)ccc3nc21` (centres undefined), the survival was inactive: 152%.

`Cc1cccc(-c2nc(SCc3cc(=O)c4c(C)cc(C)cc4[nH]3)n[nH]2)c1`: the survival was inactive: 78%.

In the case of `COCCN(CCOC)S(=O)(=O)c1ccc(C(=O)Nc2sc3c(c2C(N)=O)CCCC3)cc1`, the survival is inactive: 129%.

Take `CCC(=O)N1CCc2cc(Br)cc(S(=O)(=O)N3CCCC(C(=O)Nc4ccc(C)c(F)c4)C3)c21` (centres undefined): the survival is inactive: 113%.

Take `Cc1nn(C(C)C(=O)NCc2ccc(OC(C)C)cc2)c(=O)c2c1sc1ccccc12` (centres undefined): the survival is inactive: 90%.

Take `Cc1ccc(C(=O)N(Cc2ccc(N(C)C)cc2)CC2CCCO2)cc1` (centres undefined): the survival is inactive: 50%.

As for `COc1ccccc1NC(=O)c1c(-c2ccc(C)cc2)nnc2ccccc12`, the survival was inactive: 105%.

Consider `Cc1ccc2ccc3cc(C(=O)N4CCN(c5ccccc5F)CC4)nc3c2[nH]1`, for which the survival is inactive: 88%.

Consider `CCCCNC(=O)CCC(=O)NNc1nc2ccccc2c2nc(C)nn12`, for which the survival was inactive: 89%.

Consider `CCN(C(=O)CN1C(=O)c2ccccc2Sc2ccc(C(=O)OC)cc21)c1cccc(C)c1`, for which the survival is inactive: 120%.

In the case of `CCC(=O)N1CCc2cc(S(=O)(=O)NC(Cc3ccccc3)C(=O)NCc3ccccc3)ccc21` (centres undefined), the survival is inactive: 65%.

Take `Cc1ccc(OCC(=O)Nc2ccc(OCc3cc(=O)n4ccsc4n3)cc2)cc1C`: the survival was inactive: 138%.

On to `CCCCNc1nc2c(S(=O)(=O)c3ccc(Br)cc3)nnn2c2ccsc12`, for which the survival is inactive: 74%.

Turning to `Cc1ccc(NC(=O)Cn2c(=O)n(Cc3nc(-c4ccccc4)no3)c(=O)c3ccccc32)c(C)c1`, the survival was inactive: 84%.

Regarding `COc1ccc(-c2csc(C(C#N)=C3CCCC3)n2)cc1`, the survival was inactive: 90%.

For the compound `Cc1nn(-c2ccccc2)c(OC(=O)c2ccccc2)c1S(=O)(=O)c1ccccc1`, the survival was inactive: 81%.

On to `Cc1ccc2oc(C(=O)Nc3c(C(=O)Nc4cccc(Cl)c4)oc4ccccc34)cc(=O)c2c1`, for which the survival was inactive: 67%.

Consider `COc1ccc(N2CCN(C(=O)Nc3cn(CC(C)C)c(=O)c4ccccc34)CC2)cc1`, for which the survival was inactive: 83%.

With `O=C(Nc1cc(Cl)ccc1Cl)c1ccc2c(c1)N(Cc1cccc(Cl)c1)C(=O)c1ccccc1S2=O` (centres undefined), the survival was inactive: 94%.

`O=C(NCc1cccs1)c1ccc2c(c1)sc1nc(-c3ccc(F)cc3)cn12`: the survival was inactive: 71%.

Consider `CCOC(=O)N1CCC(NC(=O)c2ccc3c(c2)N(Cc2ccccc2C)C(=O)c2ccccc2S3=O)CC1` (centres undefined), for which the survival was inactive: 53%.

Regarding `CCOc1ccccc1-c1noc(CSc2nnc(-c3ccccc3)n2-c2ccc(OC)cc2)n1`, the survival is inactive: 58%.

For the compound `Nc1nc(SCc2cccc3ccccc23)n[nH]1`, the survival was inactive: 82%.

In the case of `CN(Cc1nc(-c2ccc(Cl)cc2)no1)S(=O)(=O)c1ccccc1`, the survival was inactive: 55%.

On to `CC(C)c1ccc(C2CC(=O)Nc3cc4c(cc32)OCCO4)cc1` (centres undefined), for which the survival is inactive: 59%.

Regarding `CCOC(=O)CSc1nc2ccccc2c(=O)n1-c1ccc(C(=O)NCCOC)cc1`, the survival was inactive: 96%.

On to `O=C(Nc1ccccc1C(F)(F)F)N1CCOc2ccc(Cl)cc21`, for which the survival was inactive: 46%.

In the case of `Cc1ccc(N2C(=O)CS(=O)(=O)C23C(=O)Nc2ccccc23)cc1C` (centres undefined), the survival was inactive: 74%.

As for `CCc1cccc(C)c1NS(=O)(=O)c1ccc2c(c1)CC(C)N2C(=O)C1CC1` (centres undefined), the survival was inactive: 88%.

For `COc1ccc(-c2noc(CSc3nc4ccccc4[nH]3)n2)cc1OC`, the survival is inactive: 62%.

In the case of `CCN1C(=O)C(O)(c2c[nH]c3ccccc23)c2cc(Br)ccc21` (centres undefined), the survival is active: 55%.

Turning to `Fc1cccc(CSc2ccc(-c3cccs3)nn2)c1`, the survival was inactive: 94%.

On to `Cc1cccc(Cn2c(=O)n(-c3ccccc3C)c(=O)c3c2c2cc(C)ccc2n3C)c1`, for which the survival was inactive: 95%.

`O=C(C1CCCN(S(=O)(=O)c2cccc3nsnc23)C1)N1CCN(c2cccc(Cl)c2)CC1` (centres undefined): the survival is inactive: 54%.

Consider `CCCN1CCc2nc(N3CCN(C)CC3)ncc2C1`, for which the survival is inactive: 91%.

For `COc1ccc(NC(=O)c2cnc(N3CCCC3)nc2)cc1OC`, the survival was inactive: 95%.

For `CCCC1=Nc2cc(C(=O)N3CCC(C(=O)OCC)CC3)ccc2Sc2ccccc21`, the survival was inactive: 79%.

On to `O=C(OC(C(=O)NC1CCCC1)c1ccccn1)c1cccs1` (centres undefined), for which the survival was inactive: 88%.

Regarding `O=C(NCc1cccc(F)c1)c1ccccc1NC(=O)c1nsc2ccccc12`, the survival is inactive: 108%.

`Cc1cccc(NC(=O)C2CCCN2S(=O)(=O)c2ccc3c(c2)n(C)c(=O)c(=O)n3C)c1` (centres undefined): the survival was inactive: 86%.

For the compound `CCC(=O)N1c2ccccc2CC1C(=O)NCc1cc(Br)ccc1OC` (centres undefined), the survival is inactive: 79%.

On to `COc1ccccc1C(=O)N(c1ccc(C)cc1)S(=O)(=O)c1ccc(Cl)cc1`, for which the survival was inactive: 74%.

Take `Cc1ccc2oc3c(c(=O)c2c1)C(c1ccc(O)cc1)N(c1nc(C)c(C)s1)C3=O` (centres undefined): the survival was inactive: 162%.

Take `CCC(=O)Nc1nnc(S(=O)(=O)N2c3ccccc3CC2C)s1` (centres undefined): the survival is inactive: 92%.

Regarding `Cc1csc2nc(COC(=O)c3ccc(NC(=O)C(C)Oc4ccccc4)cc3)cc(=O)n12` (centres undefined), the survival was inactive: 134%.

For `Cc1ccc(CNc2nc3ccccc3n3cnnc23)cc1`, the survival was inactive: 86%.

Take `Cc1oc(-c2ccc(Cl)cc2)nc1Cn1c(=O)cc(C)c2c(C)nn(-c3ccccc3)c21`: the survival is inactive: 94%.

Regarding `CC(=O)Nc1cccc(NC(=O)Cn2cnc3c(oc4ccccc43)c2=O)c1`, the survival was inactive: 82%.

Take `Cn1c(=O)n(C)c2cc(N3CCOCC3)c(NS(=O)(=O)c3cccc(C#N)c3)cc21`: the survival is inactive: 87%.

As to `CCNC(=O)c1ccc(C2SCC(=O)N2Cc2ccco2)cc1` (centres undefined), the survival is inactive: 104%.

As to `O=C(CCSCc1cccc(Cl)c1)NCCc1ccc(Cl)cc1`, the survival was inactive: 76%.

As to `O=C(c1ccccc1)N1CCc2cc(CNS(=O)(=O)c3ccc(Cl)s3)ccc21`, the survival is inactive: 93%.

Consider `COc1ccc(-n2c(SCC(=O)NCc3ccc(F)cc3)nc3c([nH]c4ccccc43)c2=O)cc1`, for which the survival is inactive: 105%.

For the compound `COc1ccc(S(=O)(=O)NCC(c2ccco2)S(=O)(=O)c2cccs2)cc1F` (centres undefined), the survival is inactive: 102%.

With `Cc1ccc(-c2nc3c4c(-c5ccccc5)c(-c5ccccc5)oc4ncn3n2)cc1`, the survival was inactive: 56%.

Turning to `Cc1ccc(CCNC(=O)C2CCN(S(=O)(=O)c3ccc4c(ccn4C)c3)CC2)cc1`, the survival was inactive: 94%.

For the compound `CCOc1ccc(NC(=O)c2c(C)oc3nc(C)nc(N4CCOCC4)c23)cc1`, the survival was inactive: 93%.

In the case of `Cc1ccc(CNC(=O)CSc2nc3ccccc3nc2Cc2ccc(C)cc2)cc1`, the survival is inactive: 71%.

Take `Cn1nnc2c(NCc3c(F)cccc3F)ncnc21`: the survival was inactive: 80%.

On to `COc1ccc(N(C(=O)Cn2nnc3ccccc32)C(C(=O)NCc2ccccc2)c2ccc(F)cc2)cc1` (centres undefined), for which the survival is active: 42%.

Turning to `COc1ccc(N2CCN(Cc3nc4c(c(=O)[nH]c(=O)n4C)n3Cc3ccccc3F)CC2)cc1`, the survival was inactive: 119%.

Turning to `COc1ccc(CCNC(=O)c2cc(=O)c3cc(C)c(C)cc3o2)cc1OC`, the survival was inactive: 85%.

Take `Cc1nnc(Sc2nc(Sc3nnc(C)s3)nc(N3CCCCC3)n2)s1`: the survival is inactive: 74%.

`Cn1c(=O)c2c(nc(SCC(=O)Nc3ccc(F)c(F)c3)n2Cc2ccccc2F)n(C)c1=O`: the survival is inactive: 111%.

Regarding `CCc1ccc(C(=O)CC2(O)C(=O)N(CCc3ccccc3)c3ccc(Cl)cc32)cc1` (centres undefined), the survival was active: 19%.

On to `COc1ccc(CNC(=O)CN2CC(C)CC(C)C2)c(OC)c1` (centres undefined), for which the survival is inactive: 94%.

Take `Cc1ccc(-n2ncc(C(=O)NCc3ccco3)c2C2CCN(C(=O)OC(C)(C)C)CC2)cc1`: the survival is inactive: 94%.

Turning to `CNC(=O)C1CCC(Cn2c(=O)c3sccc3n(CC(=O)N3CCC(C)CC3)c2=O)CC1` (centres undefined), the survival is inactive: 58%.

(Values after PubChem BioAssay AID463173 (ICCB-Longwood Screening Facility, Harvard Medical School, 2010).)
